Laboratory results from the supplement of paper PMC7826260.
The list shows a part of the results. Each Rep nickase domain was tested in vitro on the same pool of single strands (1 h at 37 °C, 3 µM enzyme); the outer parts of the 90-letter strands are left off. Values are log2 of uncut reads against the no-enzyme pool; uncut sequences lie near 0, cut ones below; no hit call is given. Because reads are shares of a total, they shift together; where an enzyme cuts many sequences, the uncut ones exceed 0.

Key:
Experiment in all cases: uncleaved DNA left, log2 of reads against the no-enzyme library (log2 ratio); higher = less cleavage (more negative = more Rep cleavage of the k-mer); sequences stand for … in CTCGTCCG…ACCGGAGA
[1] = system: T1, Rep nickase domain of Muscovy duck circovirus
T1 sequence (residues 1-111 of Rep, tag left off): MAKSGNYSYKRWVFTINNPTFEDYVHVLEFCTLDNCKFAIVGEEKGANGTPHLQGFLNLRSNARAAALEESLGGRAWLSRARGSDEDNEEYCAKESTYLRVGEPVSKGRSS
Protocol: (§1)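 A pool of 90-nt single-stranded DNAs with seven random bases just before the constant AC of the nick site (name = the seven bases) was cut by 3 µM recombinant His6-SUMO-tagged Rep nickase domain (300 nM DNA, 50 mM HEPES pH 8.0, 50 mM NaCl, 1 mM MnCl2, 1 h, 37 °C, three replicates). Uncut DNA was amplified and sequenced.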

[2] = system: T2, Rep nickase domain of banana bunchy top virus
T2 sequence (residues 1-94 of Rep, tag left off): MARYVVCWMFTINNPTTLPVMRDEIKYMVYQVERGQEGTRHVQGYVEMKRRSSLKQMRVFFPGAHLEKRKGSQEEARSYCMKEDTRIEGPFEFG
Protocol: as §1

[3] = system: T3, Rep nickase domain of cabbage leaf curl virus
T3 sequence (residues 1-116 of Rep, tag left off): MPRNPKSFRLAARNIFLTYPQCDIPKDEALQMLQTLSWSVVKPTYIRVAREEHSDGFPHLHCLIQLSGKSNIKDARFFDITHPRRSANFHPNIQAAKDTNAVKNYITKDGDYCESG
Protocol: as §1

[4] = system: T4, Rep nickase domain of chickpea chlorotic dwarf virus
T4 sequence (residues 1-124 of Rep, tag left off): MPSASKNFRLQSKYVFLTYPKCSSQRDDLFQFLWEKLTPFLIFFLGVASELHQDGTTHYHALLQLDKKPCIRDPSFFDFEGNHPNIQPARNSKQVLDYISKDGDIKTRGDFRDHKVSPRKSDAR
Protocol: as §1

[5] = system: T5, Rep nickase domain of faba bean necrotic yellows virus
T5 sequence (residues 1-98 of Rep, tag left off): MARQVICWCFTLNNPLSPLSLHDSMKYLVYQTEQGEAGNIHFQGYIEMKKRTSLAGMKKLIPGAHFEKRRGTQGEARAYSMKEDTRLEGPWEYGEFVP
Protocol: as §1

[6] = system: T6, Rep nickase domain of maize striate mosaic virus
T6 sequence (residues 1-117 of Rep, tag left off): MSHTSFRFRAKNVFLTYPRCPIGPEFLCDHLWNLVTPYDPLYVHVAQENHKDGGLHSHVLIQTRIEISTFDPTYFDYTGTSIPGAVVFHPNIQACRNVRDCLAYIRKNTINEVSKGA
Protocol: as §1

[7] = system: T7, Rep nickase domain of porcine circovirus 2
T7 sequence (residues 2-116 of Rep, tag left off): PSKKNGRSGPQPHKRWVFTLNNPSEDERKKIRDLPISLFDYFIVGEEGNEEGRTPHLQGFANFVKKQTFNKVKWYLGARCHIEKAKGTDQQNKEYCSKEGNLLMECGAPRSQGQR
Protocol: as §1

[8] = system: T8, Rep nickase domain of tomato golden mosaic virus
T8 sequence (residues 1-124 of Rep, tag left off): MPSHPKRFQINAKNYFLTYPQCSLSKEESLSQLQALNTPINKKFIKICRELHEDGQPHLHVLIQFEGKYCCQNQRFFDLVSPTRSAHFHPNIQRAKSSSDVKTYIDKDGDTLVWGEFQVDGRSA
Protocol: as §1

[9] = system: T9, Rep nickase domain of tomato yellow leaf curl virus
T9 sequence (residues 1-136 of Rep, tag left off): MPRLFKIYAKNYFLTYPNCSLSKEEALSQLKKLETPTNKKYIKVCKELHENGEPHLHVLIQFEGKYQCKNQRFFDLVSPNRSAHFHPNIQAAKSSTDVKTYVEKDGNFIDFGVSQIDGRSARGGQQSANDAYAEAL
Protocol: as §1

[10] = system: T10, Rep nickase domain of wheat dwarf virus
T10 sequence (residues 1-137 of Rep, tag left off): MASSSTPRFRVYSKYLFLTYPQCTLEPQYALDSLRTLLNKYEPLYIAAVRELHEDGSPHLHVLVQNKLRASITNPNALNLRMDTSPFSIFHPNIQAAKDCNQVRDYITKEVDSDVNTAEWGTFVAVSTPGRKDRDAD
Protocol: as §1

Sequence	uncleaved DNA left (log2) [1]	uncleaved DNA left (log2) [2]	uncleaved DNA left (log2) [3]	uncleaved DNA left (log2) [4]	uncleaved DNA left (log2) [5]	uncleaved DNA left (log2) [6]	uncleaved DNA left (log2) [7]	uncleaved DNA left (log2) [8]	uncleaved DNA left (log2) [9]	uncleaved DNA left (log2) [10]
GAGACTT	-0.0693	0.0227	0.493	1.73	-0.147	2.02	-2.18	-0.119	-0.145	0.0571
CGTGGAC	-0.0936	-0.0277	0.617	1.65	-0.138	1.95	0.0338	-0.106	-0.0259	-0.0267
AACACGA	0.0549	-0.11	-0.384	-0.617	-0.0322	-1.06	0.0767	-0.0421	-0.165	-0.1
TCTGTTG	-0.0677	-0.221	-0.375	-0.709	0.0687	-1.13	-0.0137	0.0151	0.00489	-0.181
CCGTGAA	0.0426	0.122	0.268	0.255	-0.0234	-0.0759	0.0666	0.0914	0.157	-0.0723
AGAACTG	0.0262	0.0322	-0.00617	0.675	0.0223	1.7	0.0541	0.198	-0.0165	0.0725
ACCGCGT	0.0555	-0.137	-0.467	0.294	-0.0217	-0.206	0.161	-0.11	-0.0664	-0.136
CTCGGGG	0.147	0.0759	0.537	0.952	-0.000708	1.2	0.233	0.0541	-0.0418	-0.027
CTAGCTG	0.034	0.153	0.401	1.47	0.108	1.62	0.123	0.142	-0.00797	0.139
CCGACTG	-0.222	-0.0984	-0.00667	0.543	-0.0943	1.66	-0.0713	-0.0977	-0.281	-0.0308
TCGTGGT	-0.162	-0.142	0.0029	-0.253	-0.168	0.233	-2.99	-0.125	-0.159	-0.125
TAAATGG	-0.0609	-0.0815	-0.201	-0.129	-0.122	-0.18	0.0604	0.0221	-0.111	-0.0751
TAGTTGT	-1.46	-1.89	-1.18	-2.12	-0.572	-0.867	-4.06	-0.159	-0.0489	-0.0809
CCCCTTC	-0.228	-0.159	-0.152	-0.594	-0.181	-0.627	-0.0341	-0.111	-0.32	-0.121
TGATGTG	0.013	-0.069	-0.749	-0.316	0.0298	-1.04	0.133	-0.0617	-0.0231	-0.13
CTCAGAT	0.0773	-0.083	0.169	1.01	0.104	1.5	0.109	-0.0225	-0.155	0.143
TCCACTG	0.0161	-0.0251	-0.0714	0.371	-0.118	1.05	-0.0157	-0.0937	0.00457	0.0366
TATCAAA	0.0543	0.134	0.283	0.018	-0.0303	-0.0358	0.0747	0.0394	0.156	0.111
TGCATAC	0.0744	0.115	0.283	0.356	0.046	0.483	0.144	0.102	0.116	0.0335
TAGCCGG	0.0949	0.0106	0.502	1.22	0.018	1.67	0.0813	0.14	0.0186	0.0312

Sequence	uncleaved DNA left (log2) [1]	uncleaved DNA left (log2) [2]	uncleaved DNA left (log2) [3]	uncleaved DNA left (log2) [4]	uncleaved DNA left (log2) [5]	uncleaved DNA left (log2) [6]	uncleaved DNA left (log2) [7]	uncleaved DNA left (log2) [8]	uncleaved DNA left (log2) [9]	uncleaved DNA left (log2) [10]
TCACATT	0.0673	0.0861	-0.242	-2.34	0.0561	-0.371	-0.0329	0.0284	0.0238	0.0469
GTCTAAG	0.222	0.26	0.379	0.757	0.239	0.625	0.299	0.202	0.258	0.195
ACATTCC	-0.0592	0.00612	0.183	0.563	0.0592	0.0454	0.201	-0.0284	-0.0279	0.0569
TCTACTT	-0.0124	-0.0399	-0.114	-2.69	0.00744	-0.2	-0.622	0.0857	0.0622	-0.132
GACCGCA	-0.0542	0.00124	0.00287	-0.146	-0.0514	-0.284	-0.0688	0.0518	-0.0975	-0.0232
GTACGTC	0.0699	0.152	0.382	0.773	0.0463	1.3	0.03	0.0357	0.0136	0.0872
CTTTAGC	0.14	-0.11	0.0377	0.252	0.123	-0.371	0.117	0.118	0.0867	-0.0241
GTTCCCC	-0.135	0.0869	0.313	0.94	-0.0828	1.51	-1.6	-0.0538	0.0653	0.119
CTGGAAC	-0.134	0.0231	0.161	0.215	-0.153	0.251	0.0694	0.00548	0.0329	0.0442
GGCCCTG	0.106	0.122	0.135	0.897	0.0168	1.67	0.268	0.117	0.0762	0.0638
TTCGCAG	-0.0741	-0.0309	-0.768	-0.792	-0.0847	-1.1	0.0944	-0.0625	-0.108	-0.0791
CGTCGAT	0.0701	-0.0788	0.076	0.262	-0.224	0.131	-0.0463	0.101	-0.0883	-0.0991
TCAAACA	0.00377	0.0322	0.102	-2.07	0.089	-0.512	-0.105	-0.0436	0.0788	0.089
TTTCTAT	0.00106	-0.0866	0.206	-0.442	-0.019	-0.176	-0.162	-0.104	-0.0145	-0.00169
TCTAAGG	-0.0569	-0.113	0.409	1.34	-0.03	1.65	0.166	0.034	-0.23	-0.136
ATAAGCA	0.0896	0.114	-0.81	-1.84	0.0823	-1.08	-0.00672	0.0482	0.0521	-0.0419
CGTCGGC	-0.014	-0.0417	-0.08	0.119	-0.00735	-0.3	0.0805	-0.124	-0.0399	0.00233
GCCATGT	-0.0157	-0.0059	-0.121	0.0691	-0.123	-0.576	0.0599	-0.126	0.0786	0.0144
GGCCCCG	0.0639	0.0199	0.032	0.134	0.0496	-0.108	-0.00379	0.0904	0.0786	0.123
CCCTCTC	-0.0437	-0.0657	0.145	-0.197	-0.0969	-0.525	-0.138	-0.181	-0.0655	-0.0257

Sequence	uncleaved DNA left (log2) [1]	uncleaved DNA left (log2) [2]	uncleaved DNA left (log2) [3]	uncleaved DNA left (log2) [4]	uncleaved DNA left (log2) [5]	uncleaved DNA left (log2) [6]	uncleaved DNA left (log2) [7]	uncleaved DNA left (log2) [8]	uncleaved DNA left (log2) [9]	uncleaved DNA left (log2) [10]
AGGTCTC	-0.0749	0.0135	0.122	0.237	0.0124	0.558	-0.114	-0.0213	0.0734	-0.0176
CAGTATG	0.107	0.134	-0.477	-0.247	-0.0615	-0.795	-0.32	0.0551	0.0344	-0.0778
TGCGATC	-0.061	-0.131	-0.172	-0.0999	-0.142	-0.588	-0.0662	-0.0605	-0.0899	-0.15
ATTTGTT	-3.4	-3.45	-1.18	-2.79	-0.454	-1.4	-3.75	-0.339	-0.195	-1.11
TAGCGCG	0.00742	0.000631	-0.759	-0.33	-0.0359	-0.949	0.0349	0.0557	-0.0702	-0.123
CCCGTGT	-0.188	0.00265	-0.132	-0.575	-0.21	-0.853	-0.17	-0.117	-0.097	-0.183
AGGCTTA	0.0228	-0.0176	0.0641	-0.135	0.12	0.527	-0.256	0.145	-0.0501	-0.0474
GATGTCG	0.0351	-0.0514	-0.649	0.0782	0.000175	-0.682	0.0552	-0.0874	-0.0335	-0.0909
CAGCATA	-0.0216	0.0326	-0.345	-2.36	-0.0665	-0.646	-1.01	-0.0818	0.0219	-0.173
ACCATAC	0.0218	0.0449	-0.383	-0.782	0.0915	-1.02	0.17	0.0838	0.00934	-0.0152
TATGAAT	-0.223	-0.01	-0.404	-1.64	0.0357	0.207	-0.329	-0.075	-0.151	-0.166
CACTATT	-3.77	-3.64	-3.39	-3.2	-2.66	-1.74	-4.63	-2.91	-0.0585	-1.62
AGTTCAG	0.0801	0.114	-0.56	-0.405	0.0892	-1.01	0.195	0.0512	0.121	-0.000997
TTTCTTC	0.0557	-0.0662	0.112	-0.354	0.0571	-0.438	0.0243	-0.0872	0.0167	-0.0162
GCACTTT	0.0899	0.0229	-0.0115	-1.33	-0.0668	0.0321	-0.0901	-0.105	0.0376	-0.103
GCCTCTG	0.0145	-0.0416	-0.169	0.255	-0.0303	0.0995	0.0345	0.0309	-0.132	-0.0053
AGACTCC	-0.042	0.0227	0.676	1.47	-0.0362	1.9	-0.013	-0.0107	-0.0716	0.0814
CACGCCA	-0.0867	-0.0424	-0.174	-1.92	0.0482	-0.42	-0.0772	0.048	-0.114	-0.195
CACTTCA	-0.118	-0.319	-0.204	-2.44	-0.0502	-0.734	-2.76	-0.0563	-0.01	0.0782
CCGTCCA	0.0491	-0.0556	0.0941	-0.781	-0.0102	-0.23	-0.134	-0.0264	0.0762	-0.036
